Measured values published in the supplement of paper PMC3334620.
The full ranking holds about 33,000 sequences; the median of “E-score (-0.5 to 0.5)” is about -0.056, and the highest 2% start at about 0.38. The list shows a part of the results.

Molecular target: Stb4 (UniProt P50104)
Assay: PBM E-score (8-mer binding enrichment) (E-score (-0.5 to 0.5)); higher = stronger / more preferred TF binding; most listed sequences are background and not binding sites
Details: protein concentration: 200 nM; construct: GST-DNA-binding domain
Summary of the method: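 E-scores (a modified Wilcoxon-Mann-Whitney statistic) were assigned by the Universal PBM Analysis Suite to every ungapped eight-base word pooled with its reverse complement. The input came from universal all-10-mer Agilent arrays made double-stranded by primer extension and probed with GST-tagged yeast transcription factors at about 100-200 nM. Fluorescent anti-GST detected bound protein, and masliner normalised the scans.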

Row | Sequence | PBM E-score
1 | CGTCCGAC | 0.147
2 | GACGAAGC | -0.142
3 | GGAACGAC | 0.0694
4 | CTAATAGA | 0.113
5 | GCCGCGAA | 0.0415
6 | ATATAGTA | -0.208
7 | ACTTGAGC | -0.258
8 | GATTTTAC | 0.0329
9 | ACATGAGT | -0.134
10 | CCTATATC | -0.0301
11 | AATTCCTC | 0.0334
12 | GTCGTGGA | -0.135
13 | ACCAAGGA | 0.00373
14 | ATCGGGGC | 0.147
15 | ACTCTCCC | 0.129
16 | AATAGACT | -0.242
17 | ATAACCCC | 0.0131
18 | CCGTGTAC | 0.119
19 | CAGTACTA | -0.186
20 | CTTCCATC | 0.0979
21 | ATCAGTTG | -0.275
22 | GATCTTGC | 0.0905
23 | CGACCAGA | -0.00112
24 | ATCGCACG | -0.22
25 | GAGCGATC | -0.0677

Row | Sequence | PBM E-score
26 | TCGGCAAA | 0.41
27 | AAGCGCGA | -0.072
28 | GACATAGC | -0.0829
29 | AGGAGACT | -0.284
30 | AACGTTGG | 0.00161
31 | CACGCTCA | -0.138
32 | ATGTGCGA | -0.173
33 | CGTGCGCC | 0.0102
34 | ATTGGTCC | 0.0162
35 | CACCAAGA | -0.155
36 | ATGGCGGA | 0.243
37 | GCGGATAC | 0.367
38 | CTCCACAA | -0.209
39 | CCGAACGG | 0.413
40 | GGGTAGGA | 0.163
41 | CTAAAGGA | -0.00185
42 | ATTTTTTG | 0.0376
43 | GCCCAAAA | -0.115
44 | AGTGGCAA | -0.166
45 | ATAAGTCG | 0.0995
46 | AACCCTCC | 0.167
47 | AAAGAGCT | -0.128
48 | AGTTGAAT | -0.0296
49 | CAGCTCGC | -0.13
50 | ATGGACTG | -0.212

Row | Sequence | PBM E-score
51 | CTGAAAGC | -0.0455
52 | AATTTCTC | 0.0433
53 | TCCACCAA | -0.0554
54 | AACCAAGA | -0.0962
55 | AAGGGATA | -0.287
56 | CGACAACC | 0.0295
57 | GCAAGCGA | -0.107
58 | GAAATTTC | -0.0674
59 | AGGACCGC | -0.0222
60 | GAGTACTA | 0.00964
61 | CGACTACA | -0.121
62 | AGCTATAG | -0.241
63 | AGCAAAGA | -0.182
64 | GGGGGTAC | -0.0768
65 | ACGTCTTG | -0.208
66 | TATCCACA | -0.184
67 | CTATGGAC | -0.171
68 | ATTGCTGG | -0.188
69 | AGTTTCCA | -0.103
70 | GATTTATA | 0.0503
71 | CGGGCTGC | 0.221
72 | CTGGCTAC | -0.0546
73 | CACATATG | -0.435
74 | ACAATCCT | -0.187
75 | ATGTGTCA | -0.129

Row | Sequence | PBM E-score
76 | AACCCTGC | -0.174
77 | CGTAGCTA | -0.281
78 | GTACCTAA | -0.246
79 | AACTCTGG | -0.123
80 | ACCCGCCC | 0.351
81 | AATAATCC | 0.147
82 | AAACGTTG | -0.135
83 | CCCGGGTA | 0.407
84 | GACTCCTA | -0.227
85 | AGCGTATG | -0.00737
86 | AGCATCGC | -0.145
87 | AACGACTT | -0.0958
88 | CTTAGAAG | -0.29
89 | CATTCTAC | -0.0963
90 | CAGTCATG | -0.203
91 | CAATACTA | -0.0633
92 | AGCAATAG | -0.00744
93 | GTTCCTCA | 0.00933
94 | CGGCTTAA | 0.359
95 | ACCGTGCG | 0.00112
96 | AACATACA | -0.0188
97 | AGAGGCTA | -0.17
98 | GTAGGCAA | -0.206
99 | ACGTCGTG | -0.119
100 | GATCTACC | 0.0755

Row | Sequence | PBM E-score
101 | CCCCACAG | -0.332
102 | GATAGCGA | -0.0238
103 | CCTGTGCC | -0.00035
104 | CTGGTCCA | -0.0862
105 | ATACCGCA | 0.256
106 | CCAGCTAG | -0.355
107 | CTCAGGCA | -0.0232
108 | AGAAGAAG | 0.00552
109 | CAGTCTCG | 0.063
110 | CTCTACTA | -0.146
111 | ATACAGGG | 0.0358
112 | ATACGCGA | -0.207
113 | CCGATGCA | 0.339
114 | AATACGAT | -0.067
115 | GTTGGCGA | -0.0832
116 | CCGGATCA | 0.383
117 | AAGCCTGA | -0.234
118 | GTACTAGA | -0.0915
119 | ACTTACAG | -0.193
120 | CGCGGTCA | 0.0397
121 | GAACCTAC | 0.0506
122 | ACATCGGG | 0.276
123 | ACTTAGTA | 0.0102
124 | ATACAGAG | -0.267
125 | GCCGCAAC | 0.042

Row | Sequence | PBM E-score
126 | GGTGCCCA | -0.147
127 | ATCAACGC | -0.151
128 | AGTACGTG | -0.188
129 | AAAATCCC | 0.0969
130 | GCTGACAA | -0.0045
131 | CTTGCAAC | -0.342
132 | AAGGTATG | -0.137
133 | ATTCGAGA | -0.165
134 | ACTTGTGA | -0.217
135 | ACCCACCC | 0.214
136 | GGTAGTAC | 0.0665
137 | GACATCAA | 0.0594
138 | CTCCCGCA | 0.266
139 | AACACAAG | -0.184
140 | TGAAAACA | 0.0347
141 | AGAAAGCA | 0.00056
142 | ACTCCGTC | 0.0768
143 | GCCCGAAC | 0.262
144 | CTCTCGGC | 0.397
145 | AAGTGGGA | 0.0186
146 | CCTCAACC | -0.0938
147 | AGCTAGCC | 0.04
148 | GGAAGGAA | 0.167
149 | AGTCCCTC | -0.109
150 | ACACTTAT | -0.0992

Row | Sequence | PBM E-score
151 | AATCCTCT | -0.217
152 | ACCGTACT | 0.0893
153 | CACTTCAG | -0.188
154 | ACCGTTGA | -0.137
155 | CTGACCCC | -0.00228
156 | CCACTCCC | 0.143
157 | ATCTATAC | 0.0424
158 | CGGCTTGC | 0.216
159 | AACACAGC | -0.00529
160 | GGTTGGGA | 0.0463
161 | CATATCGA | -0.0475
162 | CAGGCGGC | 0.067
163 | CTCAACAC | -0.0725
164 | ACATTCGG | 0.363
165 | GAACAGCC | 0.0331
166 | CAGGTAGG | -0.242
167 | CACTTGGA | -0.087
168 | AGAGTCAC | -0.28
169 | ACTAGTAA | -0.158
170 | AGGCCCTA | -0.144
171 | AGATACTA | -0.0256
172 | CACTACGC | -0.149
